# From publication PMC6212790
# The other results are listed elsewhere or left out. At the low end of the ranking, values are background and their order means little.
# Target: T1, GST-Rok (full length) (UniProt O34857)
# T1 sequence: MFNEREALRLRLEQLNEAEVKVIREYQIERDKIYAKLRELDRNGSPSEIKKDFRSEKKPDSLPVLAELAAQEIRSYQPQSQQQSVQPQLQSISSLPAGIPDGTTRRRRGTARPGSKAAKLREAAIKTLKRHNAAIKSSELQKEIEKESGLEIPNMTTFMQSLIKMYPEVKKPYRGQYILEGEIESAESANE
# Assay: protein binding microarray;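 also: rank score from −0.5 (least bound) to 0.5 (best bound)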
# Settings: Rok is a gene silencer of Bacillus subtilis; high values mean tight binding; most listed sequences are background and not binding sites; double strand, one strand shown
row,Sequence,binding signal [E-score]
1,GAATGACC,-0.216
2,ATTGCCGG,-0.0899
3,AGCATTAG,0.15
4,CTTACTGA,0.208
5,AAACAGCC,-0.181
6,GCAATCAC,-0.0379
7,AGTTTGAA,0.091
8,ACAAGCCA,-0.181
9,AATCCTAC,0.257
10,CTGACTTC,-0.0847
11,CTTATGCA,0.116
12,AACGCTAA,0.174
13,GGTCAATA,0.0981
14,GTGGTCCA,-0.173
15,ACATGGGT,0.0268
16,ACAGACGT,0.0146
17,CACGTAAG,0.0075
18,ATTCTACG,0.18
19,CTTCAATA,0.0452
20,ATTCGTTC,0.0279
21,AGTATTGG,-0.051
22,TCATCAAA,-0.0807
23,CGGACTAC,-0.0835
24,AAACCACG,0.054
25,CGGGATTC,-0.0829

row,Sequence,binding signal [E-score]
1,GTTCCATA,-0.00825
2,AGACTATA,0.286
3,GCACTCCA,-0.231
4,AGGCGGCG,-0.178
5,CATTGGGG,-0.333
6,AGGCGGAT,-0.239
7,AGTCTTAA,-0.106
8,ACAAACAT,0.269
9,TCTAGTAA,0.351
10,AACGGCCC,-0.15
11,ATGAGAGG,-0.154
12,GTCTCAGA,-0.101
13,CACATCTG,-0.0365
14,TACCGTAA,0.223
15,AGTCCACT,-0.151
16,CCGGCTAG,-0.0804
17,AGATGGAG,-0.113
18,GGATTTCA,0.0535
19,GTACTAAA,0.241
20,GTTTCGAA,0.146
21,AAGCAATT,0.274
22,AGCTGTCG,-0.0533
23,AAGCCAGT,-0.178
24,ATGGACGA,-0.158
25,ATGCATGC,-0.138

row,Sequence,binding signal [E-score]
1,CCTTCCAG,-0.191
2,ACCCGTTA,0.0593
3,GCCATTGA,-0.105
4,CTCGCGAA,-0.00276
5,GACAATCA,0.078
6,GACAGCTA,-0.0314
7,AGGGGCAT,-0.109
8,CGAGGATC,0.048
9,CGCTTCTC,0.0455
10,ATCTACCA,0.48
11,CAATTAGG,-0.146
12,ATCTGCCC,-0.298
13,CATGCAAC,0.077
14,CGACAAAG,-0.254
15,AAAACTTA,0.232
16,ATACACCA,0.19
17,CTATATGC,0.185
18,ACACCAAC,-0.0562
19,GTATGCAA,-0.066
20,ACAGCCTC,-0.236
21,AGACATCC,-0.21
22,CGGCGATC,-0.131
23,CACGTGGC,-0.305
24,ATTTCCCG,0.0149
25,CCATGTCC,0.11

row,Sequence,binding signal [E-score]
1,ATACGCGC,0.119
2,GGATTCGA,0.0409
3,AGCAAAAT,0.272
4,ACCGAGGC,-0.186
5,CGCTTTTA,-0.112
6,CGAAAGCG,-0.287
7,CAACCATC,-0.0661
8,ATCCGAAC,-0.133
9,ACCCGACC,-0.271
10,ACTCCTTA,-0.118
11,CGAGGGCA,-0.318
12,GAGTCGTA,0.0305
13,AATATCAT,0.233
14,CCGAACTC,0.0171
15,CCGTGTGC,-0.0528
16,ACAGGACC,-0.0993
17,ATCGCCAC,-0.0751
18,GATGGCGC,-0.152
19,CCCTTCGG,-0.39
20,GCCTACTA,0.0988
21,CAGTGTTC,-0.00359
22,TATGTTAA,0.269
23,CCGAACAA,-0.0804
24,CAGTAACG,0.112
25,CAGCCGAC,-0.279

row,Sequence,binding signal [E-score]
1,AGGTAGAT,0.359
2,ATTATATC,0.377
3,AACTTCGT,0.0718
4,AGTTCCCA,-0.096
5,AACAGACT,-0.0964
6,ACGGCCTG,-0.0914
7,ACACGGAT,0.15
8,CCCGTTGC,-0.106
9,ATAAAGGC,-0.0454
10,GCTATTCA,-0.00299
11,GTATCTGA,-0.0276
12,TAACGCAA,0.276
13,GCATTCCC,-0.31
14,AAGCTCGG,-0.133
15,AATCAAAA,0.072
16,TAGTACTA,0.44
17,ACCGATGG,-0.2
18,GATGTTCC,0.0427
19,GTGCTAGA,0.275
20,GGTACAAA,0.282
21,CGCACTTC,-0.15
22,CACTCCCG,-0.118
23,CAAGTTCG,0.0316
24,ATTAACCG,0.0492
25,CAGCATCG,-0.146

row,Sequence,binding signal [E-score]
1,CCTCGAGA,-0.0474
2,ACTGCTAC,0.217
3,GAGCCTCC,-0.415
4,ATTATAAA,0.157
5,CTCTGATC,-0.0643
6,AGATCCGC,-0.166
7,AGGCGACT,-0.163
8,AGTCCAAT,0.0567
9,ACTGACAC,-0.0718
10,CCGGGTTC,-0.251
11,GATCTCGC,-0.075
12,GTGAGTAA,0.0609
13,ATCGACCA,0.12
14,ATCTACTG,0.382
15,ACCTCAGG,-0.116
16,CCTAGGTC,-0.0668
17,AGGAATTA,0.101
18,ATACGACG,0.212
19,CGATTCAG,-0.0766
20,ATATCTGA,0.111
21,ACCCAGGT,-0.252
22,CGATGCTA,0.0795
23,AAAATGTT,0.1
24,ATGAAAAG,-0.00495
25,ATATGCCA,-0.0946

row,Sequence,binding signal [E-score]
1,CGAGCGCA,-0.0105
2,CGCCGCTA,0.201
3,ACCATCCT,-0.0786
4,ATTATTAA,0.0696
5,AGGATCCC,-0.153
6,ATAGAGCG,-0.00269
7,AGCCGACC,-0.108
8,AGACACTC,-0.156
9,CCTCGATA,-0.188
10,AGCACGAA,-0.0288
11,CATCAAAC,-0.191
12,AATTTGAC,0.16
13,TTTCAAAA,-0.0736
14,GGGTCTAA,-0.199
15,AGTGGGCG,-0.0855
16,CACGTAGA,-0.0333
17,TACACCCA,0.0585
18,TGAATCAA,-0.14
19,GCCATACC,-0.211
20,ACAGTCTG,-0.235
21,GCTACTCA,0.0298
22,CAATATAG,0.211
23,ATATATCC,0.18
24,ATCGTGAG,-0.0159
